In PubChem BioAssay AID1030 (National Center for Advancing Translational Sciences (NCATS), 2008):
The whole screen tested about 220,000 compounds, of which about 16,000 (7.3%) were called active. Inconclusive means that the source gave no clear call. Such entries were picked first, then a sample of the others. Calls follow the shape of the dose curve; as a rule, active = well fitted inhibition curve with a large enough effect (not every such curve was filed as active); inconclusive = small, poorly fitted or top-dose-only effect, or another doubt; inactive = no such curve, though single readings can be large or run the other way. Potencies of inconclusive entries are left out as doubtful fits. Some compounds were tested as several samples or in several runs, with calls that do not always agree.

biological target: Aldehyde dehydrogenase 1A1 (Homo sapiens) (UniProt P00352); test: qHTS Assay for Inhibitors of Aldehyde Dehydrogenase 1 (ALDH1A1); conditions: Purified ALDH1A1, NADH fluorescence, propionaldehyde substrate; series mostly up to 75.3 µM;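 as to activity, negative = inhibition: plate controls were no enzyme wells and a reference inhibitor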
Potency is read from the fitted curve at half-maximal effect; tags tell the direction and shape of the fitted curve.

UniProt P00352, sequence (P00352 whole entry, looked up): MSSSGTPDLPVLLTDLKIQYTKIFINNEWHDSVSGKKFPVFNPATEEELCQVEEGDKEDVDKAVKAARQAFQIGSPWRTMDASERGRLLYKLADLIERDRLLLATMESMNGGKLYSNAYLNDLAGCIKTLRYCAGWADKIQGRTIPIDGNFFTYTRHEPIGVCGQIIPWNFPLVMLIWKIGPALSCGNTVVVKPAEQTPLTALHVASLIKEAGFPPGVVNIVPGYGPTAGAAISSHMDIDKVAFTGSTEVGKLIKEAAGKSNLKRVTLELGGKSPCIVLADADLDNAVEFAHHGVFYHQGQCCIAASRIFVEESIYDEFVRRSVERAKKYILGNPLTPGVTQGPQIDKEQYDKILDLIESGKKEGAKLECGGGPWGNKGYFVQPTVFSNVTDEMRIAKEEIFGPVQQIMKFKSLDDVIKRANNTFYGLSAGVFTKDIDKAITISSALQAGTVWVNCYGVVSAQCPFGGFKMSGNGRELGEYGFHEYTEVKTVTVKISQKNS

Structure (SMILES) | Potency | activity, negative = inhibition
CCCCCCCCc1[se]c2ccccc2c1Br | inactive | –
Cn1c2ccccc2c2c(C(=O)N3CCC4(CC3)OCCO4)cn(C3CCCCC3)c(=O)c21 | inconclusive [inhibitor, partial curve] | –
O=c1c2ccccc2nc(Cc2ccccc2)n1-c1cccc(O)c1 | inconclusive [inhibitor, single point] | –
CC1(C)S[C@@H]2[C@H](N)C(=O)N2C1C(=O)O (some centres not stated) | inactive | –
COc1ccc(C=O)cc1O | inconclusive [inhibitor, partial curve] | –
Cc1cccn2c(=O)c3c(nc12)N1CCC(Cc2ccccc2)CC1C1(C3)C(=O)N(C)C(=O)N(C)C1=O (configuration not stated) | inconclusive [inhibitor, partial curve] | –
[O-]/[N+](=C/c1cccnc1)c1ccc(Br)cc1 | active: 1.78 µM | –
N#CC1=C(N)Oc2c(c(=O)sc3ccccc23)C1c1ccncc1 (configuration not stated) | inactive | –
CCCCn1c(NC(=O)c2ccc(Br)o2)c(C(=O)OCC)c2nc3ccccc3nc21 | inconclusive [inhibitor, partial curve] | –
COc1ccc(N2C(=O)CC(=O)NC2=O)cc1 | inactive | –
CC(C)c1cc2c(c(O)c1O)[C@]1(C(=O)O)CCCC(C)(C)C1CC2 (some centres not stated) | active: 15.8 µM | –
Cn1c(NN=O)nc2ccccc21 | inconclusive [inhibitor, full curve] | –
O=NN1CCCC1c1cccnc1 (configuration not stated) | inconclusive [inhibitor, single point] | –
COc1ccc(-c2nc3ccccc3c(=O)n2-c2ccc(OC)cc2)cc1 | active: 11.2 µM | –
N#Cc1c(/N=C/c2ccc(O)cc2O)sc2c1C1CCN2CC1 | inconclusive [inhibitor, single point] | –
O=C1NC(=O)N(Cc2ccccc2Cl)C(=O)/C1=C/N1CCOCC1 | inactive | –
Cc1cc[c]([Sb]2[O]C([C@H](O)[C@H](O)C(=O)O)[C@@H](CO)[O]2)cc1 (some centres not stated) | – | inactive: 2.8% [at 13.5 µM]
COc1ccc(C[C@@H]2C(=O)N[C@H](C)C(=O)N(C)[C@@H]3C(=O)N(C)[C@@H](Cc4ccc(O)c(c4)Oc4ccc(cc4)[C@H]3O)C(=O)N[C@@H](C)C(=O)N[C@H](C)C(=O)N2C)cc1 | – | inactive: 10.6% [at 13.5 µM]
COc1cc(OC2CCN(C(C)=O)CC2)ccc1C(=O)N1CCC(N2C(=O)OCc3ccccc32)CC1 | inconclusive [inhibitor, partial curve] | –
CCCNS(=O)(=O)c1ccc(OCC(=O)N2CCN(Cc3ccccc3)CC2)cc1 | inconclusive [inhibitor, single point] | –
CN(C[C@H](c1ccccc1)N(C[C@H](Cc1ccccc1)N(CCc1ccccc1)N=O)N=O)N=O | inconclusive [inhibitor, full curve] | –
COc1ccc(CCNCc2ccncc2)cc1 | active: 22.4 µM | –
C=CCn1c(O)c(C=Nc2ccc(OC)cc2C)c(=O)[nH]c1=O | inconclusive [inhibitor, single point] | –
CC1=NN(c2ccc(S(=O)(=O)O)cc2C)C(=[OH+])[C@H]1N=Nc1cc(S(=O)(=O)O)ccc1C(=O)O.O.[Cr] | inconclusive [inhibitor, single point] | –

Structure (SMILES) | Potency | activity, negative = inhibition
O=C(CN1CCCCC1)c1ccc(OC(F)F)cc1 | inconclusive [inhibitor, partial curve] | –
[N-]=[N+]=[N-] | active: 17.8 µM | –
CC[C@H]1CN2CCc3cc(OC)c(OC)cc3[C@@H]2C[C@@H]1C[C@H]1NCCc2cc(OC)c(OC)cc21 | inactive | –
Cc1onc(-c2ccccc2Cl)c1C(=O)N1C=CC(C(F)(F)F)=NCC1 | inconclusive [inhibitor, single point] | –
Cc1ccc(N2C(=O)NC(=O)/C(=C\c3ccoc3)C2=O)cc1 | inconclusive [inhibitor, single point] | –
COc1ccc(C2C([N+](=O)[O-])=C(N)Oc3c2c(=O)oc2ccccc32)cc1 (configuration not stated) | inconclusive [inhibitor, single point] | –
O=C1C2CCN(CC2)C1Cc1ccccc1O (configuration not stated) | inconclusive [inhibitor, single point] | –
CN1CCN(c2ccc([N+](=O)[O-])c(N3CCCCC3)c2)CC1 | inconclusive [inhibitor, single point] | –
CCCCC/C=C\C/C=C\C/C=C\C/C=C\CCCC(=O)Nc1ccc(O)cc1 | inconclusive [inhibitor, partial curve] | –
COc1cccc(NP(=O)(Oc2ccc(Cl)cc2)Oc2ccc(Cl)cc2)c1 | inactive | –
O=C(NCCO)c1nsnc1NCCCl | inconclusive [inhibitor, single point] | –
O=C(/C=C/c1ccc2c(c1)OCO2)c1c(O)n(CCC2=CCCCC2)c(=O)[nH]c1=O | active: 31.6 µM | –
COc1ccc(/C=C2\C(=O)NC(=S)N(C)C2=O)cc1C | active: 7.94 µM | –
Cc1ccc(C(=O)C2CN(C)CC2C(=O)c2ccc(C)cc2)cc1 (configuration not stated) | inactive | –
CC(N=Cc1c(O)[nH]c(=O)[nH]c1=O)c1ccccc1 (configuration not stated) | inconclusive [inhibitor, partial curve] | –
CCn1ccnc1CN1CCCC(C(=O)c2cc(F)ccc2OC)C1 (configuration not stated) | inactive | –
C[C@@H]1O[C@@H](O[C@H]2C[C@@H](O)[C@]3(CO)[C@@H]4C(CC[C@]3(O)C2)[C@@]2(O)CC[C@H](C3=CC(=O)OC3)[C@@]2(C)C[C@H]4O)[C@H](O)[C@H](O)[C@H]1O (some centres not stated) | inactive | –
CC(C)(O)[C@H]1O[C@@H]2CC[C@]3(C)[C@@]4(C)c5[nH]c6ccccc6c5C[C@@H]4CC[C@]3(O)C2=CC1=O | inactive | –
COc1ccc(N2C(=O)NC(=O)/C(=C/c3cccc(OC(=O)c4cccs4)c3)C2=O)cc1Cl | inconclusive [inhibitor, single point] | –
CCCOC(=O)c1ccccc1C(=O)OCCC | inconclusive [inhibitor, single point] | –
CC(=O)CC(C)C | active: 12.6 µM | –
S=c1[nH]nc(-c2ccco2)n1/N=C/c1cccs1 | active: 25.1 µM | –
O=c1cccc2n1CC1CC2CN(CCO)C1 (configuration not stated) | inactive | –
COc1ccc2c(c1O)-c1cc(O)cc3c1[C@@H](C2)N(C)CC3 | inconclusive [inhibitor, partial curve] | –

Structure (SMILES) | Potency | activity, negative = inhibition
COCCNC(=O)c1c(N)n(Cc2ccco2)c2nc3ccccc3nc12 | inconclusive [inhibitor, partial curve] | –
CN1CCN(C(=O)COc2ccc(S(=O)(=O)N(C)Cc3ccccc3)cc2)CC1 | inconclusive [inhibitor, full curve] | –
Nc1ccc(N)cc1 | inactive | –
CC(=O)O/C(=C1/C[C@H]2[C@@H]3CC=C4C[C@@H](OC(C)=O)CC[C@]4(C)[C@@H]3CC[C@]2(C)C1=O)C(F)(F)F | inconclusive [inhibitor, partial curve] | –
C[n+]1c(-c2ccccc2)cc(-c2ccc(Cl)cc2)cc1-c1ccccc1 | inconclusive [inhibitor, partial curve] | –
CC(C)Cc1[nH]c(=O)c(C#N)c2c1CCC2 | inconclusive [inhibitor, partial curve] | –
O=C(Nc1ccc2c(c1)OCO2)c1cn(Cc2ccc(F)cc2)nn1 | inconclusive [inhibitor, single point] | –
CC1CCN(C(=O)c2ccc(N3CC4CC(C3)c3cccc(=O)n3C4)c([N+](=O)[O-])c2)CC1 (configuration not stated) | inconclusive [inhibitor, full curve] | –
C[C@]12CCC(=O)C=C1CCc1ccc(O)cc12 | inconclusive [inhibitor, partial curve] | –
CCn1c(=O)oc2cc(NC(=O)CCl)ccc21 | active: 1.58 µM | –
C=CCN(CC#CCOc1ccccc1OC)CC=C | inconclusive [inhibitor, single point] | –
CC[C@]12CCCN3CCC4(c5ccccc5NC4C(C(=O)O)C1)C32 (some centres not stated) | inactive | –
CC(C)CN(C(=O)CN1CC=C(c2ccccc2)CC1)c1c(N)n(CC(C)C)c(=O)[nH]c1=O | inactive | –
CNC(C(=O)c1ccccc1)C(OC(C)=O)c1cccc([N+](=O)[O-])c1 (configuration not stated) | inconclusive [inhibitor, single point] | –
Nc1nc(SCCC(F)=C(F)F)n[nH]1 | inactive | –
N#CCCC#N | active: 28.2 µM | –
O=C1NC(=S)N(c2ccc(Br)cc2)C(=O)/C1=C/N1CCN(C(=O)c2ccco2)CC1 | inconclusive [inhibitor, single point] | –
ClCC[N+]12CC[N+](CCCl)(CC1)C2 (tested in a mixture with another compound) | inconclusive [inhibitor, partial curve] | –
C=CCc1ccc(O)c(OC)c1 | active: 14.1 µM | –
Cc1ccc(S(=O)(=O)N[C@@H](CCCCN)C(=O)CCl)cc1 | active: 8.91 µM | –
O=C(CN1C(=O)CN=C(c2ccccc2)c2ccccc21)NCc1ccco1 | inconclusive [inhibitor, single point] | –
COC(=O)[C@H]1[C@H](c2ccccc2)C(=O)[C@@]2(O)c3ccccc3O[C@@]12c1ccccc1 | – | inactive: 0.713% [at 13.5 µM]
N#CCCn1cc(C(=O)Nc2ccccc2Cl)c(-c2ccc([N+](=O)[O-])cc2)n1 | inactive | –
COc1ccccc1N1C(=O)NC(=O)/C(=C/c2ccc3c4c(cccc24)CC3)C1=O | inconclusive [inhibitor, partial curve] | –
